# Reference: PubChem BioAssay AID1347165 (National Center for Advancing Translational Sciences (NCATS), 2019)
# Among all 220,000 compounds or so, about 5,700 (2.6%) were called active. The inconclusive results got no clear call from the source; some entries with a clear call stand among them for comparison. Calls follow the shape of the dose curve; as a rule, active = well fitted inhibition curve with a large enough effect; inconclusive = small, poorly fitted or top-dose-only effect; inactive = no such curve, though single readings can be large or run the other way. Potencies beside an inconclusive call are fits to weak or partial responses and may not hold up.
# Biological target: Lysine-specific demethylase 5B (Homo sapiens) (UniProt Q9UGL1)
# Test: Primary screen for KDM5B Histone Demethylases FDH-coupled qHTS; also: nearly all actives have a fitted effect of over 70% in size
# Settings: FDH-coupled NADH fluorescence (FDH is formaldehyde dehydrogenase); series mostly up to 57.7 µM
# Outline: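 Compound dilutions met 200 nM (final) KDM5BΔAP for 10 min at room temperature before substrate addition. The substrate mix held 12.5 µM H3K4me3 with cofactors 25 µM α-ketoglutarate and 50 µM Fe²⁺. NADH signal gain over 30 min defined activity.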
# Potency is read from the fitted curve at half-maximal effect; tags tell the direction and shape of the fitted curve.
# Chain of UniProt Q9UGL1 (Q9UGL1 whole entry, looked up): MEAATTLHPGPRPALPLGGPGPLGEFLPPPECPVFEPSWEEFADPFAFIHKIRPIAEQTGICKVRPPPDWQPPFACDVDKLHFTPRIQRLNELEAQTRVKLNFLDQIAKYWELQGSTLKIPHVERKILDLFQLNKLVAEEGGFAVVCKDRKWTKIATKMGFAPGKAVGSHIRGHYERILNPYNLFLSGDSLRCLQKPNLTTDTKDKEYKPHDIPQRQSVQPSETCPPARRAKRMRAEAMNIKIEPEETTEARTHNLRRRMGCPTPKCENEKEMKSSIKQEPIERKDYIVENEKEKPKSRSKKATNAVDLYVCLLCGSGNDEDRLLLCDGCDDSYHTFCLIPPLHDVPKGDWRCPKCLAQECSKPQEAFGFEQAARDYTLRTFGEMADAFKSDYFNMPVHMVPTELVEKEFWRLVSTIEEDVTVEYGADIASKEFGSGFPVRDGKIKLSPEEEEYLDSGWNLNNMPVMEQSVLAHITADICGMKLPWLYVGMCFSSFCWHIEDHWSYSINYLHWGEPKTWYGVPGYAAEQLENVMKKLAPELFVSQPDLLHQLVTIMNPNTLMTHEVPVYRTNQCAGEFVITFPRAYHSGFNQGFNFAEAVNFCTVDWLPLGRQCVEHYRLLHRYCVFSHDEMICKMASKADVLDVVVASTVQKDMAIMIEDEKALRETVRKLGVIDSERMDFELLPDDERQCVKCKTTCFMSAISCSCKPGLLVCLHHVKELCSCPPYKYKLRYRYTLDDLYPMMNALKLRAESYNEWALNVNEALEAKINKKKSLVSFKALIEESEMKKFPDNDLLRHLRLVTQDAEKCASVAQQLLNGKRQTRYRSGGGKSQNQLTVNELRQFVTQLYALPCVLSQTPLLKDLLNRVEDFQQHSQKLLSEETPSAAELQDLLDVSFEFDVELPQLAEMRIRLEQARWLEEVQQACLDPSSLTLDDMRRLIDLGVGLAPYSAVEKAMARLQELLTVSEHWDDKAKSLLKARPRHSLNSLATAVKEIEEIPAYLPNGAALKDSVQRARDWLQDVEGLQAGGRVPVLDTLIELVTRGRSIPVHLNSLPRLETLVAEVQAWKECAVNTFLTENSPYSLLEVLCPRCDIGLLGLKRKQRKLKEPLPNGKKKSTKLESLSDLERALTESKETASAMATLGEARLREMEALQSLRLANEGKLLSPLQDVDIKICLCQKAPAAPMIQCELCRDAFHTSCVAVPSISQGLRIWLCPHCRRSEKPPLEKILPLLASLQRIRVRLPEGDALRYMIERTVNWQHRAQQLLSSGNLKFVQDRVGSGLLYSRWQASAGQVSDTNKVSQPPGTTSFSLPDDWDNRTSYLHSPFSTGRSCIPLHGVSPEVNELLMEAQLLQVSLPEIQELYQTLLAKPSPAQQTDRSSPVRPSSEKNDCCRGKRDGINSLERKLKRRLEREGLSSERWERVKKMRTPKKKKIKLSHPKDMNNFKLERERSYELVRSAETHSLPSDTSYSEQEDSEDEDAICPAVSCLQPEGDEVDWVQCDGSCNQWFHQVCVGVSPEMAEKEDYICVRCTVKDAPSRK
row,Compound,Potency
1,O=C(Cc1csc(-c2ccc(F)cc2)n1)Nc1ccnn1Cc1ccccc1Cl,inactive
2,Cc1c(C)c2ccc(OCC(=O)NCc3ccc(S(N)(=O)=O)cc3)cc2oc1=O,"inconclusive: 1.78 µM [inhibitor, partial curve, poor fit]"
3,O=C(Nc1ccccc1C(=O)NC1CC1)c1cnc2ccccc2n1,"inconclusive: 10 µM [inhibitor, partial curve, poor fit]"
4,COc1ccc(C(=O)N2CC[C@H]3C(=O)NCCCCCCN(Cc4ccncc4)[C@@H]3C2)cc1F,"inconclusive: 22.4 µM [inhibitor, partial curve, poor fit]"
5,O=C(O)CCSCc1c[nH]c2ccccc12,inactive
6,CCN1C(=O)CCC2(C(=O)NCCc3c[nH]c4ccccc34)CCCC=C12 (stereo not given),"inconclusive: 39.8 µM [inhibitor, partial curve, poor fit]"
7,COC(=O)c1ccc(/C=C(/C#N)C(=O)c2c(Cl)cccc2Cl)cc1,"inconclusive: 39.8 µM [inhibitor, single point]"
8,C#CCNC(=O)[C@@H]1Cc2cn(Cc3nccn3C)c3cccc(c23)[C@H](CC(C)C)N1,"inconclusive: 28.2 µM [inhibitor, single point]"
9,COc1cc(OC)c(N(C)C(=O)Nc2cn(CC(C)C)c(=O)c3ccccc23)cc1Cl,"inconclusive: 31.6 µM [inhibitor, partial curve, poor fit]"
10,Cc1nn(C)c(C)c1C(=O)NCc1cc(Cl)c2c(c1)OCCCO2,inactive
11,O=c1[nH]nc(-c2ccco2)c2c1Nc1nnnn1C2c1ccccc1Cl (stereo not given),"inconclusive: 15.8 µM [inhibitor, partial curve, poor fit]"
12,COc1ccc(CNC(=O)N2CCc3c(nc(-c4ccc(OC)cc4)[nH]c3=O)C2)cc1,inactive
13,COc1ccccc1NC(=O)C1=C(C)Nc2c(C(=O)Nc3ccccc3)cnn2C1c1ccccc1F (stereo not given),"inconclusive: 39.8 µM [inhibitor, single point]"
14,COc1ccccc1C(=O)Nc1c(C(=O)NC(C)(C)C)oc2ccccc12,"inconclusive: 39.8 µM [inhibitor, single point]"
15,NC(=O)C1CCN(CC(=O)Nc2ccc(Br)cc2)CC1,inactive
16,CCOCC1(C)COc2ccc(C(=O)Nc3ccc(OC)nc3)cc2N1 (stereo not given),"inconclusive: 35.5 µM [inhibitor, single point]"
17,Cc1cccn2c(=O)c3cc(C(=O)N(Cc4ccccc4)Cc4ccccc4)n(C)c3nc12,"inconclusive: 1.78 µM [inhibitor, partial curve, poor fit]"
18,Cc1ccc(C(=O)N2CC[C@H]3C(=O)NCCCCCCN(Cc4ccncc4)[C@@H]3C2)s1,"inconclusive: 39.8 µM [inhibitor, single point]"
19,CC(=O)Nc1ccc(Nc2cc(C(C)C)nc3c(-c4ccccc4)c(C)nn23)cc1,"inconclusive: 31.6 µM [inhibitor, partial curve, poor fit]"
20,COc1ccc(-c2ccnc3nc(CC(C)C)nn23)c(F)c1,active: 28.2 µM
21,O=C(/C=C/c1ccc2c(c1)OCCCO2)OCc1ccccn1,"inconclusive: 28.2 µM [inhibitor, single point]"
22,COc1ccccc1-c1nc(C(=O)NCc2ccc3c(c2)OCO3)n2ccccc12,active: 25.1 µM

row,Compound,Potency
1,CC1=NN(c2ccccc2)C(=O)/C1=C\C=C\c1ccccc1,"inconclusive: 11.2 µM [inhibitor, partial curve, poor fit]"
2,COC(=O)CNc1ccccc1C(=O)NCC(F)(F)F,"inconclusive: 28.2 µM [inhibitor, partial curve, poor fit]"
3,Cc1c(O)c2ccccc2n(-c2ccccc2)c1=O,"inconclusive: 28.2 µM [inhibitor, partial curve, poor fit]"
4,Cc1noc(C)c1Cn1cc2c3c(cccc31)[C@H](CC(C)C)N[C@H](C(=O)NCC1CC1)C2,active: 31.6 µM
5,CN(Cc1ccccc1)c1ncccc1CNC1CCSCC1,"inconclusive: 39.8 µM [inhibitor, single point]"
6,COCCNC(=O)c1cc(-c2ccccc2Oc2ccccc2)cc2ncn(C)c12,"inconclusive: 25.1 µM [inhibitor, single point]"
7,CC(C)c1nc2c(c(-c3ccc(Cl)cc3)n1)CCN(Cc1ccc(F)cc1)CC2,"inconclusive: 39.8 µM [inhibitor, partial curve]"
8,N=c1c(C(=O)NCC2CCCO2)cc2c(=O)n3ccccc3nc2n1Cc1ccco1 (stereo not given),"inconclusive: 22.4 µM [inhibitor, partial curve, poor fit]"
9,CN1CCOc2c(C(=O)NCCc3cnc[nH]3)cc(-c3ccc(N4CCOCC4)cc3)cc21,"inconclusive: 14.1 µM [inhibitor, partial curve, poor fit]"
10,O=S(=O)(N1CCOCC1)N1CCCC(c2ccccc2)(c2ccccc2)C1,inactive
11,CN(CCc1ccccn1)C(=O)c1ccc(OC2CCN(CCc3ccccc3)CC2)cc1,inactive
12,Nc1cc(S(=O)(=O)Nc2cc(Cl)ccc2Cl)ccc1N1CCOCC1,"inconclusive: 17.8 µM [inhibitor, partial curve, poor fit]"
13,Cc1ccccc1OC1(C(=O)O)CCN(Cc2ccc(CO)o2)CC1,"inconclusive: 3.55 µM [inhibitor, full curve]"
14,CCc1nnc2ccc(NCC3CCCO3)nn12 (stereo not given),"inconclusive: 15.8 µM [inhibitor, single point]"
15,CNC(=O)c1nn(CC(=O)Nc2ccc(OC)cc2OC)c(=O)c2ccccc12,inactive
16,CCOc1ccccc1N(CC)C(=O)c1cc2c(=O)[nH]c3ccc(C)cc3c2s1,"inconclusive: 15.8 µM [inhibitor, partial curve, poor fit]"
17,O=c1c2c(CO)c(-c3ccccc3)nn2ccn1Cc1cc(F)ccc1F,"inconclusive: 39.8 µM [inhibitor, partial curve, poor fit]"
18,CCC(=O)Nc1ccc(C)cc1-c1nnc(SCC(=O)Nc2ccc(Cl)c(Cl)c2)[nH]c1=O,inactive
19,c1ccc(Cn2nc(C3CCOCC3)nc2C2CCC2)cc1,inactive
20,CCN(CC)S(=O)(=O)c1ccc(-c2csc(-c3ccc(OC)c(OC)c3)n2)cc1,"inconclusive: 25.1 µM [inhibitor, partial curve, poor fit]"
21,COc1ccc(C(=O)NCc2nnc3c(-c4nc(C(C)C)no4)cccn23)cc1F,active: 31.6 µM
22,CC1=C(C(=O)OC(C)(C)C)C(c2ccc(Cl)cc2)N2C(CC(=O)N3CCOCC3)=CSC2=N1 (stereo not given),"inconclusive: 15.8 µM [inhibitor, partial curve, poor fit]"

row,Compound,Potency
1,Cc1cnc(C(=O)N2CCCC(c3nc(C4CCOCC4)no3)C2)cn1 (stereo not given),active: 31.6 µM
2,O=C(NCc1ccccc1)c1ncoc1-c1cccs1,"inconclusive: 22.4 µM [inhibitor, partial curve, poor fit]"
3,CN(CCc1ccccn1)[C@H]1[C@@H]2OC[C@@H](O2)[C@@H](N(CC2CC2)CC2CC2)[C@@H]1O,"inconclusive: 28.2 µM [inhibitor, partial curve, poor fit]"
4,CCc1cc(=O)[nH]c(-n2nc(C)cc2NC(=O)c2ccccc2Br)n1,inactive
5,CCCn1cc2c3c(cccc31)CN(C(=O)c1ccccc1OC)CC2,"inconclusive: 14.1 µM [inhibitor, partial curve, poor fit]"
6,NC1CCc2nn(CC(=O)N3CCN(c4ncccn4)CC3)c(=O)n2CC1 (stereo not given),"inconclusive: 17.8 µM [inhibitor, partial curve]"
7,COC(=O)c1cc(CNC(=O)C2Cc3ccccc3S2)ccc1OC (stereo not given),inactive
8,N#C/C(C(=O)COC(=O)c1ccc(-c2ccccc2)cc1)=C(/c1ccc(F)cc1)N1CCOCC1,"inconclusive: 39.8 µM [inhibitor, single point]"
9,CCN1c2cc(C(=O)Nc3ccc(C#N)cc3)ccc2C(=O)N2CCCCCC21 (stereo not given),"inconclusive: 28.2 µM [inhibitor, partial curve, poor fit]"
10,O=c1c2ccc(Cl)cc2ncn1Cc1ncc(-c2ccc(Cl)cc2)o1,inactive
11,CN(C)C[C@@H]1CN(c2ncccn2)C[C@H]1NS(=O)(=O)c1cccnc1,active: 25.1 µM
12,COc1ccc(Cn2c(SCc3ccc(C(=O)NC(C)C)cc3)nc3cccnc32)cc1,"inconclusive: 39.8 µM [inhibitor, single point]"
13,COc1ccc(-c2ccc3nnc(CNC(=O)c4ccc(OC)cc4C)n3n2)cc1,active: 28.2 µM
14,Cn1ccc(NC(=O)C2(C)CCc3cnc(NCc4ccccc4)nc32)n1 (stereo not given),active: 35.5 µM
15,Cc1cn2nc(C(=O)N3CCC(NC(=O)c4cc(Cl)ccc4F)CC3)cc2c(=O)[nH]1,"inconclusive: 20 µM [inhibitor, single point]"
16,CCCCCn1nc(C(=O)OCC(=O)Nc2ccc3c(c2)OCO3)c2ccccc2c1=O,inactive
17,Cc1ccc(C)c(NC(=O)CSc2ncc(S(=O)(=O)c3ccc(C)c(Cl)c3)c(=O)[nH]2)c1,inactive
18,Cc1nc2c(NC3CCN(C(=O)c4cnccn4)CC3)cccn2n1,"inconclusive: 20 µM [inhibitor, partial curve]"
19,CCOc1ccccc1NC(=O)CN(C)S(=O)(=O)c1ccc2ccccc2c1,"inconclusive: 39.8 µM [inhibitor, single point]"
20,Cc1ccc(CCNC(=O)Cn2nc(-c3ccc(C)cc3)ccc2=O)cc1,"inconclusive: 2.51 µM [inhibitor, partial curve, poor fit]"
21,CC(=O)Nc1cccc(NC(=O)C(=O)NCCc2sc(-c3ccccc3)nc2C)c1,inactive
